Reference: the RNAGym collection of RNA variant scans (doi:10.1093/nar/gkz1192)
The source gives no read counts; variants with many changes may rest on few reads.

B1: CPEB3 Ribozyme (parent)
chain: UAACAGGGGGCCACAGCAGAAGCGUUCACGUCGCAGCCCCUGUCAGAUUCUGGUGAAUCUGCGAAUUCUGCUGUAUAUCUC

Variants of: B1
Assay: self-cleavage, relative activity (ratio to wild type); higher = more cleavage; in vitro, sequencing
Outline: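 Relative activity was defined as the cleaved/total read fraction for a variant divided by the same fraction for the unmutated ribozyme. CPEB3 self-cleaving ribozyme libraries were made by rounds of error-prone PCR, barcoded, and transcribed in vitro with T7 RNA polymerase for 5 hours at 37°C, and cleavage ran through transcription plus a 15 min DNase I step before EDTA. Illumina sequencing of template-switched reverse transcripts gave the reads, and DNA sequencing mapped the barcodes. Averages come from three batches, using variants with at least 5 reads.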

| Variant | self-cleavage |
| --- | --- |
| A5G A15G A18U A20G U60C A65G U67A | 0.09 |
| A5G A15G A18U C27G U31A | 0.07 |
| A5G A15G A20G A28G A45G | 0.44 |
| A5G A15G A20G C32A C34G | 0.85 |
| A5G A15G A20U U54C A57U | 0.2 |
| A5G A15G A21G C37U U78C | 0.79 |
| A5G A15G A21G U26A A35U U41C A65C | 0.08 |
| A5G A15G A21G U48C U54C | 0 |
| A5G A15G A21G U51A U76G | 0.56 |
| A5G A15G A21U U26A U41C U43C U54A | 0 |
| A5G A15G A28G G33A U51A U72C | 0.09 |
| A5G A15G A28G U41C U43A U49C U66C | 0.31 |
| A5G A15G A28U A45G U51A | 0.52 |
| A5G A15G A35U U66C C68U U80A | 0.28 |
| A5G A15G A45U U48C U67C | 0.16 |
| A5G A15G A64U U69C | 0.27 |
| A5G A15G C23A U69C U78A | 0.13 |
| A5G A15G C27U G42A A57G U69A | 0.02 |
| A5G A15G C38G A75G | 0.19 |
| A5G A15G G30A C50A U51C | 0.3 |
| A5G A15G G30A U51C U60A | 0.2 |

| Variant | self-cleavage |
| --- | --- |
| A5G A15G G36A C62G U76C | 0.42 |
| A5G A15G G52U A56G | 0.61 |
| A5G A15G U25C G33A U78C | 0.13 |
| A5G A15G U25C U69C | 0.51 |
| A5G A15G U26A A28G U49C | 0.35 |
| A5G A15G U26A U48C U74A | 0.52 |
| A5G A15G U26C U72A | 0.07 |
| A5G A15G U31A U41G U67A | 0.5 |
| A5G A15G U31C G33A C37U U41A | 0.23 |
| A5G A15G U31G U78G | 0.8 |
| A5G A15G U49C A64U A75G | 0.35 |
| A5G A15G U66A U69C | 0.43 |
| A5G A15G U76A | 0.61 |
| A5G A15U A18U U26C G30A A75U | 0.08 |
| A5G A15U A20G A35G | 0.92 |
| A5G A15U A20G U43C | 0.38 |
| A5G A15U A20G U72A | 0.49 |
| A5G A15U A21G U60A | 0.41 |
| A5G A15U A28G U60C U78C | 0.29 |
| A5G A15U A28U U43C | 0.73 |
| A5G A15U A35G U51C C62U A64G | 0.25 |

| Variant | self-cleavage |
| --- | --- |
| A5G A15U A35U U67A | 0.1 |
| A5G A15U A45G U54A U78C | 0.29 |
| A5G A15U A45G U72C U80C | 0.17 |
| A5G A15U A77G | 0.82 |
| A5G A15U C29A U58C U78C | 0.34 |
| A5G A15U C29G U31C | 0.07 |
| A5G A15U C37A | 0.1 |
| A5G A15U C38U | 0.74 |
| A5G A15U C40A U41A U69C U72C | 0.22 |
| A5G A15U C40U C44A U67C | 0.18 |
| A5G A15U C50G | 0.24 |
| A5G A15U U26A A45G U60C G73A | 0.57 |
| A5G A15U U26C | 0.2 |
| A5G A15U U26C A35G G70C U80A | 0.16 |
| A5G A15U U41C U48C A56G A64U | 0.19 |
| A5G A15U U43A U54C | 0.55 |
| A5G A15U U67C | 0.06 |
| A5G A15U U74C | 0.75 |
| A5G A18C A47G A57G | 0.32 |
| A5G A18C C23G A47U | 0.05 |
| A5G A18C G30C | 0.08 |

| Variant | self-cleavage |
| --- | --- |
| A5G A18C U25C A65G U80C | 0.36 |
| A5G A18C U41A U54C A65G U67G | 0.26 |
| A5G A18C U69A | 0.35 |
| A5G A18G A20G U58C U60C U80A C81U | 0.12 |
| A5G A18G A21G | 0.39 |
| A5G A18G A28G A35G | 0.17 |
| A5G A18G A28U | 0.24 |
| A5G A18G A28U U80C | 0.13 |
| A5G A18G A35G | 0.79 |
| A5G A18G A35G U41A G63U | 0.42 |
| A5G A18G A35U C38U | 0.12 |
| A5G A18G A35U U43C A64G | 0.32 |
| A5G A18G A45G U72C G73A | 0.18 |
| A5G A18G A56G | 0.2 |
| A5G A18G A56U | 0.38 |
| A5G A18G A57G | 0.33 |
| A5G A18G A57G U58A G63C G70U | 0.03 |
| A5G A18G C23U C39U G42U | 0.07 |
| A5G A18G C29U A35G C81A | 0.44 |
| A5G A18G C37U A45G U51A U74A | 0.29 |
| A5G A18G G42A A75G | 0.12 |
